Measurements published in PubChem BioAssay AID1346428 (National Center for Advancing Translational Sciences (NCATS), 2018).
Out of some 48,000 compounds screened, about 1,200 (2.5%) were called active. Inconclusive results (about 2%) are left out.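 How the source made its calls: active means activation of at least 60% and not above a set upper limit (about 1 call in 100 departs from these limits); inconclusive means activation of 40% to 60%, or above that upper limit; inactive means activation under 40%.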 The list shows a part of the results.

Molecular target: Probable G-protein coupled receptor 32 (Homo sapiens) (UniProt O75388)
Sequence of UniProt O75388 (O75388 whole entry, looked up): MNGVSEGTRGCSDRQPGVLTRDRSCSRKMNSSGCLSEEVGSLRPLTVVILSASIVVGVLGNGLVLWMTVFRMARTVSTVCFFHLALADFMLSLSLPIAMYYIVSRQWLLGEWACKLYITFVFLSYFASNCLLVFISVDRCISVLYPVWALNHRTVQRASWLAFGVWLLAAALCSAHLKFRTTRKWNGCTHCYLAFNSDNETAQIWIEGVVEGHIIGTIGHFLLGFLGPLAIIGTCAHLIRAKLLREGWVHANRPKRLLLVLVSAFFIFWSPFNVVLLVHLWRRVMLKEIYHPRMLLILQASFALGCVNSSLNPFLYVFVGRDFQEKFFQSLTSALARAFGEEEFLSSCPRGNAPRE
Assay: qHTS for Agonists of Human Resolvin D1 Receptor DRV1; further: 0% is about no effect
Details: CHO-K1 GPR32 beta-arrestin PathHunter luminescence, 90 min; at 76.9 µM; hits give high values; zero percent set by DMSO-only wells
Summary of the method: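 Step 1: seed CHO-K1 GPR32 beta-arrestin cells, 2,500/well, overnight at 37 °C. Step 2: add compounds, 90 min at 37 °C. Step 3: detection reagent, 1 h ambient, then luminescence.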

Row | SMILES | activation
1 | Cc1ccc(NC(=O)c2ccc(CNS(=O)(=O)c3ccc4c(c3)C(C)(C)C(=O)N4C)cc2)cc1C | inactive: 2.43%
2 | Cc1cc(C(=O)NCc2cccc(Br)c2)c2c(C)nn(-c3ccccc3)c2n1 | inactive: -7.43%
3 | COc1ccc(OC)c(Nc2ncnc3c2nc2n3CCCC2)c1 | inactive: -6.51%
4 | COCCCn1c(=N)c(C(=O)NCc2cccnc2)cc2c(=O)n3cc(C)ccc3nc21 | inactive: -7.87%
5 | Nc1ncnc2n[nH]c(Nc3ccc(F)cc3)c12 | inactive: -5.59%
6 | COc1cc(CCNC(=O)c2ccc3c(c2)c(C)c(C)n3Cc2cccc(C)c2)cc(OC)c1OC | inactive: -22.6%
7 | CCc1nnc(SCc2ccc(OC)cc2)c2cc3sc(C)cc3n12 | inactive: -6.58%
8 | CCOc1ccc(NC(=O)c2nc3nc(C)cc(C(F)F)n3n2)cc1 | inactive: 32.5%
9 | Cc1cc(C)c2c(-n3cccc3)c(C(=O)NCc3cccc(F)c3)sc2n1 | inactive: -2.62%
10 | CC(=O)Nc1ccc(NC(=O)CCSCCc2ccccn2)cc1 | inactive: -13.1%
11 | CCOc1ccc(CCNC(=O)CN2C(=O)COc3ccc(S(=O)(=O)N4CCCCCC4)cc32)cc1 | inactive: -11.5%
12 | CC(=O)c1cccc(NC(=O)Cn2c(=O)oc3cc(S(=O)(=O)N4CCCC4)ccc32)c1 | inactive: 19.2%
13 | CCC(=O)C1=C(c2ccc(OC)c(OC)c2)N(C(=O)CC)n2c(CC)nnc2S1 | inactive: -80.2%
14 | Cc1ccc(NC(=O)c2c(NC(=O)Cc3ccccc3)sc3c2CCCC3)cc1 | inactive: -16.4%
15 | c1ccc(CN(CC2=NCCN2)c2ccccc2)cc1 | inactive: -0.903%
16 | CN(C)c1ccc(-c2nnc3n(Cc4ccccc4)c(=O)c4ccccc4n23)cc1 | inactive: 26.3%
17 | CCN(c1nc(N)c(C(=O)N=C(N)N)nc1Cl)C(C)C | inactive: 16.6%
18 | N#Cc1c(-n2ncnc2-c2cccc(Br)c2)sc2c1CCCCC2 | inactive: 13.1%
19 | COc1ccc(-n2c(SCC(=O)Nc3cccc(C)c3C)nc3c([nH]c4ccccc43)c2=O)cc1 | inactive: -18.5%
20 | CN(C)c1ccc(CNC(=O)c2ccc(NC(=O)N3CCCCc4ccccc43)cc2)cc1 | inactive: -9.12%
21 | CC(C)(C)c1ccc(Oc2ccc(NC(=O)CCC(=O)OCC(=O)c3ccccc3)cc2)cc1 | inactive: -14.3%

Row | SMILES | activation
22 | Cc1ccc2oc(=O)c3cc(C(=O)N4CCN(c5ccccc5F)CC4)sc3c2c1 | inactive: 2.19%
23 | Cc1ccc(Cl)cc1N1CCN(C(=O)CCCn2c(=O)[nH]c3ccc(Br)cc3c2=O)CC1 | inactive: 16.3%
24 | CCc1ccccc1NC(=O)C1CCN(c2cnccn2)CC1 | inactive: -8.28%
25 | COc1ccc2c(c1)c1c(c(=O)n(-c3ccc(OC)c(OC)c3)c(=O)n1Cc1ccccc1F)n2C | inactive: -15.6%
26 | COc1cc(NC(=O)CSc2nccn2C)cc(OC)c1OC | inactive: -2.8%
27 | CC(=O)c1ccc(Nc2ccc3cc(S(=O)(=O)N4CCCC4)ccc3n2)cc1 | inactive: -20.6%
28 | O=C(CCn1cnnn1)Nc1cc(C(F)(F)F)cc(C(F)(F)F)c1 | inactive: 8.43%
29 | CC(C)Oc1cccc(C2CC(=O)Nc3cc4c(cc32)OCO4)c1 (centres undefined) | inactive: 34.8%
30 | CC(=O)c1nnn(-c2ccc(C)cc2Cl)c1C | inactive: -9.08%
31 | O=C(NCCS(=O)(=O)N1CCN(c2ccc(F)cc2)CC1)c1cccc(C(F)(F)F)c1 | inactive: 0.454%
32 | CCCCSCCCNC(=O)c1cn(C)c2ccc(S(=O)(=O)N3CCCCCC3)cc2c1=O | inactive: -5.3%
33 | CC(C)CCn1nnc2sc(-c3ccccc3)cc2c1=O | inactive: 30.6%
34 | Cc1cccc(NC(=O)c2sc3nc4c(cc3c2N)CN(C(C)C)CC4)c1 | inactive: -3.35%
35 | CCc1ccc(S(=O)(=O)Nc2ccc3[nH]c(=O)sc3c2)cc1 | inactive: -2.26%
36 | Cc1cccc(N2CCN(C(=O)CN3C(=O)COc4ccc(S(=O)(=O)N5CCOCC5)cc43)CC2)c1C | inactive: -20.8%
37 | CC1=C(C(=O)OC2CCCCCC2)C(c2cccc(F)c2F)CC(=O)N1 (centres undefined) | inactive: -9.26%
38 | Clc1ccc(N2CCN(Cc3cc4ccccn4n3)CC2)cc1 | inactive: 0.444%
39 | O=C(O)C1=CCCN(CCON=C(c2ccccc2)c2ccccc2)C1 | inactive: -15.3%
40 | CCC1CCCCN1C(=O)CSc1nc(-c2ccc(OC)c(OC)c2)cc(C(F)(F)F)n1 (centres undefined) | inactive: 26.1%
41 | Cc1cc([N+](=O)[O-])ccc1NC(c1nnc(-c2ccccc2)o1)c1ccccc1F (centres undefined) | inactive: -13.5%
42 | COc1cc(NC(=O)CCCc2nnc3n(CC(C)C)c(=O)c4sccc4n23)cc(OC)c1 | inactive: -7.12%

Row | SMILES | activation
43 | CCOC(=O)c1cc2c(=O)n3ccccc3nc2n(Cc2ccco2)c1=NC(=O)c1cccc(F)c1 | inactive: -21.4%
44 | Fc1ccc(Nc2nc(SCc3ccccc3F)nc3ccccc23)cc1 | inactive: -1.37%
45 | Cc1ccc(Cn2c(SCC(=O)NCc3ccccc3Cl)nc3ccsc3c2=O)cc1 | inactive: -15.4%
46 | Cc1nc2cc(C(=O)NC3CCCCCC3)ccc2n1-c1ccc(Br)cc1 | inactive: -18.1%
47 | CC(=O)N1CCc2cc(Br)cc(S(=O)(=O)CCC(=O)N3CCN(c4ccccc4)CC3)c21 | inactive: -1.84%
48 | CCOc1ccc2nc(N3CCCC(C(=O)Nc4ccc(OC)c(Cl)c4)C3)sc2c1 (centres undefined) | inactive: -5.9%
49 | Cc1cc(-c2ccc(C)c(S(=O)(=O)NCCc3ccc(S(N)(=O)=O)cc3)c2)on1 | inactive: -6.83%
50 | CN(C)S(=O)(=O)c1ccc2c(c1)N(CC(=O)Nc1ccc(F)cc1)C(=O)CS2 | inactive: -30.4%
51 | Cc1nn(-c2ccccc2)c2c1cc1c(=O)n(C)c(=O)nc-1n2-c1cccc(Cl)c1 | inactive: -2.54%
52 | O=C(COC(=O)C(Cc1c[nH]c2ccccc12)NC(=O)c1ccc(Cl)cc1)c1ccc(Cl)cc1 (centres undefined) | inactive: -26.7%
53 | Oc1ccc(-c2nc(-c3ccccc3)c(-c3ccc(Br)cc3)[nH]2)cc1 | inactive: 4.86%
54 | Cc1cc(C)c(NC(=O)CCn2c(=O)c3cccn3c3ccccc32)c(C)c1 | inactive: -19.1%
55 | CCN1CCN(C(c2ccc(SC)cc2)c2c(O)cc(C)n(Cc3ccco3)c2=O)CC1 (centres undefined) | inactive: -14.5%
56 | COc1ccccc1NC(=O)C1CCN(S(=O)(=O)c2ccc3[nH]c4c(c3c2)CCCCC4)CC1 | inactive: -9.21%
57 | COc1ccc(-c2cc(=O)c3cc(OCC(=O)OC(C)C)ccc3o2)cc1 | inactive: -5.43%
58 | CN(C)CC/C=C1/c2ccccc2COc2ccc(CC(=O)O)cc21 | inactive: -6.12%
59 | COC(=O)c1sc(N2C(=O)c3oc4ccccc4c(=O)c3C2c2ccc(O)cc2)nc1C (centres undefined) | inactive: -3.65%
60 | COCCCN1C(=O)c2[nH]nc(-c3ccccc3O)c2C1c1ccc(OCc2ccccc2)cc1 (centres undefined) | inactive: 25.5%
61 | COc1cc(NC(=O)CCS(=O)(=O)c2nc(-c3ccc4c(c3)OCO4)cc(C(F)(F)F)n2)cc(OC)c1OC | inactive: 10.5%
62 | COc1ccc(CCNC(=O)c2oc(=O)c3ccccc3c2-c2ccccc2)cc1OC | inactive: -5.14%
63 | COc1ccc(CNC(=O)CN2C(=O)COc3ccc(S(=O)(=O)N4CCC(C)CC4)cc32)cc1 | inactive: -7.36%

Row | SMILES | activation
64 | Cc1ccc(NC(=O)Cn2c(=O)n(CCCCC(=O)NCCc3ccc(Cl)cc3)c(=O)c3ccccc32)cc1 | inactive: -8.71%
65 | CCc1c(C)sc2c1CCN(C(=O)Nc1cc(C)cc(C)c1)C2c1ccccc1 (centres undefined) | inactive: -6.27%
66 | COCCCNC(=O)CSc1nc2cc3c(cc2c(=O)n1CCCCCC(=O)NCc1ccc2c(c1)OCO2)OCO3 | inactive: -9.01%
67 | Cc1nc(NC(=O)c2c(-c3ccccc3)c(-c3ccccc3)nn(C)c2=O)sc1C | inactive: -16.6%
68 | CCCCNC(=O)C1CCC(CNS(=O)(=O)c2ccc(C)cc2)CC1 (centres undefined) | inactive: -12.4%
69 | COc1ccc(C2CC(=O)Nc3c2c(=O)n(C)c2nc4ccccc4n32)cc1 (centres undefined) | inactive: 16.2%
70 | COc1ccc(-c2noc(-c3ccc(C)cc3Cl)n2)cc1OC | inactive: -2.55%
71 | CCOC(=O)c1[nH]c(C)c(C(=O)NCc2cccc(OC)c2)c1C | active: 61%
72 | CCc1ccccc1NC(=O)Cn1c(=O)n(CC(=O)NCCc2ccccc2)c(=O)c2ccccc21 | inactive: 6.65%
73 | COc1ccc(CC(=O)NCCc2csc(-c3ccc(C(F)(F)F)cc3)n2)cc1 | inactive: 24.7%
74 | COc1cc(Cl)c(C)cc1NC(=O)CSc1cc(-c2ccccc2)nc(C)n1 | inactive: -8.08%
75 | COc1ccc(C(=O)c2cn(Cc3cccc(C)c3)c3cc4c(cc3c2=O)OCO4)cc1 | inactive: 32.3%
76 | CS(=O)(=O)n1nc(-c2ccco2)nc1NCc1ccccc1Cl | inactive: -15.5%
77 | Cc1c(/C=C(\C#N)C(=O)Nc2cccc(Cl)c2)c2ccccc2n1Cc1ccccc1 | inactive: -1.34%
78 | COC(=O)c1sc2cccc(F)c2c1S(=O)(=O)Nc1ccc(C)cc1Cl | inactive: -16.8%
79 | Cn1c(=O)c2c(SCC(=O)NCc3ccc(F)cc3)nc(-c3ccccc3Cl)nc2n(C)c1=O | inactive: 2.61%
80 | Cc1ccc(NS(=O)(=O)c2ccc3c(c2)[C@H]2C=CC[C@H]2[C@@H](c2ccc(F)cc2)N3)cc1C | inactive: -19.4%
81 | COc1ccccc1N1CCN(C(=O)CCn2nc(C)c(S(=O)(=O)N3CCCC3)c2C)CC1 | inactive: -2.74%
82 | NC(=O)NS(=O)(=O)c1ccc(N)cc1 | inactive: 12.1%
83 | Cc1ccc(NC(=O)CSc2nc3ccc(NC(=O)COc4ccc(C)cc4)cc3s2)cc1 | inactive: 5.43%
84 | O=C(Nc1ccc2[nH]c(=O)c(=O)[nH]c2c1)c1cccc(F)c1 | inactive: -3.22%
